# According to the supplement of paper PMC11417369:
# ± gives the standard deviation of the averaged measurements. This is one part of the list.
# Tested on: PfAP2-I AP2 domain 3 (GST-tagged)
# Test: gcPBM binding intensity (ln(normalized median fluorescence intensity)); higher = stronger DNA binding
# Summary of the method: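 GST-tagged P. falciparum DNA-binding domains, expressed in E. coli (about 25 μg on average), were applied for 1 h to an Agilent 4 × 180k array of primer-extended double-stranded 36-bp intergenic genomic probes plus negative controls. The binding buffer was 1× PBS with 1% milk, 0.2 mg/ml BSA, 0.5% salmon testes DNA and 0.03% Triton X-100. Bound protein was detected with Alexa488 anti-GST antibody and scanned at 488 nm. Binding intensity is the highest Masliner-normalised natural-log median intensity across replicate spots of either probe orientation.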
row,Sequence,gcPBM binding intensity (ln)
1,TAATTATATGGATACACACACATACATTTACATAAC [CACACA_site5744],8.12 ± 0.39
2,ACTTATTTATTTTTAGTGCATTTAGTTTTATTTTAT,10.8 ± 0.26
3,TATAACTATAAAAGGAGTACTATATATATATATATA [XGTACX_site1388],9.28 ± 0.42
4,TCTACAAAATTATCATGTACATATTATTATAATTAT [XGTACX_site6585],7.88 ± 0.19
5,AATAGTACAAAAAAAAAAAAAAAAAAAAAAAAAAAA [CACACA_negctrl_site1376],8.3 ± 0.72
6,TAAAAAGAAAAAAAGAGTACAAACAAAATAATAATT [XGTACX_site6071],8.06 ± 0.68
7,TATTTGCAATGCAAATGTACATGAATTTTTTTAATG [XGTACX_site7474],7.76 ± 0.33
8,AGTATACACAAACACACACACACAAAAAAAAAAAAA [CACACA_site8036],8.01 ± 0.67
9,AAATATTTTTTAATGTGTACATAGAACATATATATA [XGTACX_site3136],8.05 ± 0.54
10,ATAATATATATATTATGTACATATAAATTTTTTTTT [XGTACX_site5826],7.51 ± 0.36
11,TATATACCTATATATACACACAAATACATAAGCTTC [CACACA_site1369],7.58 ± 0.59
12,TACGTTATATACAACTGTACTTGGATAATTATTAAC [XGTACX_site5614],7.93 ± 0.3
13,TACAAATTAATATGTACACACAAATATAAATATGTA [CACACA_site7016],7.765 ± 0.064
14,TTTTCTTTTTTGAACTGTACGCGTAAATTTAAAAAG [XGTACX_site882],7.97 ± 0.2
15,AAGTTTTTTTCTTTTTTTCTCTCTTTTTTTTTTTTT [XGTACX_negctrl_site613],7.62 ± 0.7
16,GATATGATTAACTTATGTTATTCTTGATGATTACGT [CACACA_negctrl_site354],7.41 ± 0.59
17,TTTTTTATTTATTGTTATACATCTTACTACTTATAA [GTGCAC_negctrl_site381],7.93 ± 0.76
18,AATATATTTATATATAGTACTTTTATAATATCGTTT [XGTACX_site6658],7.5 ± 0.42
19,AATACACATAATACATGTACTCACATTGTTATAACA [XGTACX_site4129],8.04 ± 0.53
20,CTTTTTTTTTTAAATAGTACTTTCTCGTATACTCAT [XGTACX_site1842],7.76 ± 0.78
21,TGTGAAATAAAATTTATACACACTTGCTAAATGATC [CACACA_site181],8.15 ± 0.71
22,AAGAAAAATGTGTTTTTTTTTTTTTTTTTTTTCAAT [TGCATGCA_negctrl_site404],7.36 ± 0.54

row,Sequence,gcPBM binding intensity (ln)
1,TTTTTTTATTTTTGTTGTACTTATAATTCTGTAAAA [XGTACX_site7344],7.92 ± 0.64
2,TATAAATATAAATACACACACACACGCCAAAGCGTA [CACACA_site6181],7.47 ± 0.4
3,TAATTAAATATTTCAGTGCATTATTTTATGATCCAT [GTGCAC_site9456],11.2 ± 0.76
4,AGATGAACTAAAAAGGTGCTAAATATGTGACCACTG [GTGCAC_site9406],10.7 ± 0.18
5,TTTTTTTTAGTATGAACACACATATAGATTATAAAA [CACACA_site7391],7.75 ± 0.53
6,ATTTAGAATGTTCCTACACACCAAATTTAAGTGTGC [CACACA_site7161],7.76 ± 0.69
7,TACATACACAGACACACACACATATAAATATAAATA [CACACA_site7641],7.83 ± 0.33
8,ATAAGAAGAAGAAAAACACACATATGTAAATATATA [CACACA_site3138],7.47 ± 0.8
9,ATATTATAGATATACACACACACATGCATGCACATA [CACACA_site6203],9.01 ± 0.42
10,TATATATCTTTATGCACACACAAAGAAAATTTTCCT [CACACA_site7366],10.4 ± 0.55
11,ATTAATTTAATTTGAATTATTTTATTATATTATTAT [XGTACX_negctrl_site10],7.31 ± 0.42
12,GTTTGAATATATCAGGTGCATTTATAATTCATATGA,10.7 ± 0.35
13,TTATTATTAAAACACACACACAAAAAAAAAAAAAAA [CACACA_site1480],8.15 ± 0.69
14,AAAAAAAAAAAAAAAACACACATGTATAATATAATA [CACACA_site2209],8.65 ± 0.59
15,TACACCTGCACGATTGCACACAAATATGTTTTGAAG [CACACA_site8656],9.48 ± 0.36
16,TATAGATGTGGTTTATGTACATACTATAAAAAATCA [XGTACX_site1400],7.99 ± 0.44
17,TTATATATATATATATAATATATATATATTTAAATA [XGTACX_negctrl_site453],7.88 ± 0.52
18,AAGAATATAATCTTCACACATATATATATATATATA [CACACA_site5927],9.36 ± 0.35
19,AAGGACAACAAACAAACACACACAAAAAAAAAATAA [CACACA_site9263],7.96 ± 0.25
20,ACCTAATATTATTAAACATGCACATTTGCATAAATA [TGCATGCA_site870],8.75 ± 0.64
21,CAAAATGAAAGGAAAAGTACATTTAAATGAATAAAT [XGTACX_site8241],7.8 ± 0.77
22,AAATAATTCAAAAAAACACACAAATTACAAAATAAA [CACACA_site269],7.7 ± 0.53
